Measured values: paper PMC12040169 (PLOS Biology, 2025)
The other results are listed elsewhere or left out.

Tested on: T1, C. trachomatis L2/434/Bu expressing GFP (CTL2-GFP)
T1 construct: L2/434/Bu GFP intracellular growth in HeLa cells
Set-up: species or system HeLa; C. trachomatis total inclusion area by high-content imaging, normalised to DMSO
Conditions: total inclusion area; 28.5 h, 10 µM; inhibitor
Procedure, shortened: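 Post-fluorescence-read fixation, DNA staining with Hoechst and high-content imaging; GFP inclusion area and number per well, and nuclei counts, used as proxies for bacterial growth and host viability.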

Row | Compound | % of control remaining
1 | O=C(CN1CCOCC1)N1CCC(F)CC1 [CBK200383] | 96.2064
2 | NC(=O)C1CCN(C(=O)CSc2nc3ccccc3s2)CC1 [CBK293953] | 75.6969
3 | Cc1nn(C)cc1CN(C)CC(=O)Nc1nc2c(s1)CC(C)CC2 (stereo not shown) [CBK306669] | 32.1041
4 | O=C(Cn1cc(C(=O)Nc2ccc(F)cc2)ccc1=O)Nc1nc2c(s1)CCCCC2 [CBK286080] | 90.6015
5 | CC(=O)Nc1c(O)nc(SCC(=O)Nc2ccccc2C(N)=O)[nH]c1=O [CBK268031] | 100.513
6 | OC(CNCc1ccc2c(c1)OCO2)COc1ccc(Cl)c(Cl)c1 (stereo not shown) [CBK074649] | 90.6086
7 | CCCc1cc(C(=O)N2CCc3sccc3C2C)[nH]n1 (stereo not shown) [CBK283072] | 78.7868
8 | OC(c1ccc2c(c1)OCO2)C1CCCCC1N1CCCCCC1 (stereo not shown) [CBK022779C] | 21.991
9 | O=C(Cc1coc2ccc3ccccc3c12)NNC(=O)c1ccccc1[N+](=O)[O-] [CBK268763] | 102.261
10 | Cc1ccc(C2(O)CC3CCC(C2)N3C(=O)c2ccncc2)cc1 (stereo not shown) [CBK284609] | 108.14
11 | CSc1ncc(C(=O)N2CCC(N3CCCC(CO)C3)CC2)c(=O)[nH]1 (stereo not shown) [CBK307338] | 45.3248
12 | O=S(=O)(N1CCOCC1)N1CCN(CC(O)COc2ccc3cc(Br)ccc3c2)CC1 (stereo not shown) [CBK268840] | 91.0066
13 | CC12CCCN1CCCN2C(=O)c1c[nH]c2ccccc12 (stereo not shown) [CBK169228] | 85.7724
14 | Nc1nonc1-n1nnc(C(=O)N/N=C/c2nc3ccccc3[nH]2)c1-c1ccccc1 [CBK262815] | 121.343
15 | Cc1ccc(C(=O)NC2CCCCC2)c(N2CCOCC2)n1 [CBK076388] | 96.7291
16 | Cn1cccc1C(=O)N1CCC(OCc2cnc(-c3ccc(S(C)(=O)=O)cc3)cn2)CC1 [CBK172007] | 92.058
17 | CCN1CC(C(=O)N2CC(O)CC2c2cc(F)ccc2F)CC1=O (stereo not shown) [CBK304031] | 31.8181
18 | Cc1cc2ccccc2n2c(=O)n(CCNC(=O)C(C)C)nc12 [CBK282876] | 69.3355
19 | CN(C)CCN(CCc1ccccc1)Cc1ccncc1 [CBK283145] | 100.293
20 | c1ccc(N2CCN(c3nc4cc5c(cc4s3)OCCO5)CC2)cc1 [CBK287499] | 104.741

Row | Compound | % of control remaining
21 | Cc1c(NC(=O)CN2CCCC(C)C2)ccc2nsnc12 (stereo not shown) [CBK269248] | 126.364
22 | Cc1ccc(NC(=O)CC(=O)NCCN2CCOCC2)cc1 [CBK262179] | 97.7653
23 | CCNC(=O)c1ccccc1NC(=O)C(C)Oc1ccccc1 (stereo not shown) [CBK269933] | 99.5146
24 | CCSc1nc2ccccc2n1CC(=O)O [CBK262059] | 102.741
25 | c1ccc(CCN2CCCN(c3ccnc(OCCN4CCOCC4)n3)CC2)nc1 [CBK083813] | 98.7363
26 | O=C(O)c1cc(-n2c(S)nnc2-c2ccncc2)ccc1Cl [CBK268989] | 90.5718
27 | Nc1ncc2ncn([C@@H]3O[C@H](CO)[C@H](O)C3O)c2n1 (stereo partly shown) [CBK201318] | 123.793
28 | CC(C)(C)c1ccnc(N[C@H]2CO[C@H]3[C@@H]2OC[C@@H]3NCc2ccccn2)n1 [CBK289524] | 109.503
29 | COc1ccc(C(=O)NCCCSc2nc(C(C)(C)C)cc(C(F)(F)F)n2)cc1 [CBK268690] | 102.539
30 | NC(=O)CCCN1CC[C@H]2c3c(cccc3C(N)=O)CC[C@H]21 [CBK007883] | 69.3828
31 | O=C(O)CNC(=O)CNC(=O)C12CC3CC(CC(C3)C1)C2 [CBK287083] | 98.019
32 | CCOc1ccc2nc(SCCN3CCOCC3)sc2c1 [CBK005888] | 59.5682
33 | O=C1NCC2(CCCN(Cc3ccc(F)cc3)C2)Oc2ccccc21 (stereo not shown) [CBK284857] | 87.531
34 | Cc1nc2ccccn2c1CN1CCC(Oc2ccc(F)cc2)CC1 [CBK281803] | 80.6475
35 | COc1ccc(CCNC(=O)N2CCN(c3ccccc3)CC2)cc1 [CBK155199] | 107.263
36 | S=C(Nc1ccccc1)N(Cc1ccccc1)Cc1ccncc1 [CBK267991] | 70.0021
37 | CCOc1ccc(N2C(=O)CC(Nc3cc(C(=O)O)ccc3C)C2=O)cc1 (stereo not shown) [CBK296651] | 103.451
38 | CCN(CC)C(=O)c1sccc1NS(=O)(=O)Cc1ccccc1[N+](=O)[O-] [CBK050396] | 126.605
39 | CC1=NN(c2nc(-c3ccc(Br)cc3)cs2)C(=O)C1/N=N/c1ccccc1C(=O)O (stereo not shown) [CBK262440] | 95.9854
40 | Cc1nc(COc2ccc(Cl)cc2)sc1C(=O)N1CCCCC1C(=O)O (stereo not shown) [CBK304233] | 60.2433
